# Test results published in ChEMBL document CHEMBL1157539, “Thousands of chemical starting points for antimalarial lead identification” (Nature, 2010).
# The full ranking holds about 13,000 compounds; the median of “IFI” is about 4, and the highest 2% start at about 17. This is one part of the list.
# Assay: GSK_TCMDC: Inhibition Frequency Index (IFI). The number of non-kinase HTS assays where a compound showed > 50 % inhibition, expressed as a percentage of the number of such assays in which the compound was tested (-0 is zero)
# Assay type: functional
row,SMILES,IFI [%]
1,CCCc1cc(C(C)=O)ccc1OCCCON1C(=N)N=C(N)NC1(C)C,3.68
2,Cc1ccc2sc(N(CCCn3ccnc3)C(=O)c3ccco3)nc2c1C,4.17
3,O=C(/C=C/c1ccc(C(F)(F)F)cc1)NCCCCCN1CCN(C(=O)Nc2ccc(Cl)cc2)CC1,5.88
4,C(=NN=c1cc[nH]c2ccccc12)c1ccncc1,0
5,COc1ccc(S(=O)(=O)NC2CCN(CCNC(=O)Nc3cc(C)nc4ccccc34)C2)cc1 (centres undefined),-0
6,COc1ccc(C2SCC(=O)N2CCc2ccc(OC)c(OC)c2)cc1 (centres undefined),2.96
7,CC(NC(=O)c1cc(-c2ccccc2)nc2c1cnn2C(C)C)C1CC1 (centres undefined),2.04
8,Cc1ccoc1C(=O)Nc1cccc(-c2cccc(-c3nc4cccc(C)c4[nH]3)c2)c1,5.56
9,Cc1cccc2nc(-c3cccc(-c4cccc(NC(=O)c5csnn5)c4)c3)[nH]c12,2.7
10,COc1ccc2nccc(NC(=O)C3CCC(NCc4cnc(SC)c([N+](=O)[O-])c4)CC3)c2n1 (centres undefined),2.29
11,Nc1cnc(C#Cc2cc3ncnc(N(CCN4CCOCC4)c4ccc(OCc5cccc(F)c5)c(Cl)c4)c3s2)cn1,7.94
12,N#Cc1cccc(NC(=O)Nc2cccc(-c3cccc(-c4nc5cc(C(F)(F)F)ccc5[nH]4)c3)c2)c1,9.09
13,O=C(Cc1ccccc1)NC(c1ccco1)c1cc(Cl)c2cccnc2c1O (centres undefined),8
14,CCOc1c(OC)ccc2c1CCN(CCN1CCC(CNC(=O)c3ccc(-c4ccc(C#N)cc4)cc3)CC1)C2,4.55
15,O=C(NCc1ccc(F)cc1)c1cc(Br)cc(N2CCN(c3ccncc3)CC2)c1,7.69
16,Cc1cc(N[C@@H](Cc2ccccc2)C(=O)NCc2cccc(F)c2)nc(NCCc2ccc(F)cc2)n1,9.09
17,CN1CCN(Cc2ccc(-c3ccc4c(Nc5cc(O)c(Cl)cc5F)ccnc4c3)o2)CC1,9.03
18,O=[N+]([O-])c1ccc(C=NNc2nc3ccccc3[nH]2)cc1,0
19,COc1cccc(CN(C(=O)Nc2ccccc2F)[C@H]2C[C@H]3C(=O)Nc4cc(F)ccc4C(=O)N3C2)c1,0.7
20,O=C(/C=C/c1ccc(Cl)c(Cl)c1)N1CCC(CCN2CCC(c3c[nH]c4cc5c(cc34)OCO5)CC2)CC1,7.25
21,Clc1ccc2c(N3CCN(CCN4CCN(c5ccnc6cc(Cl)ccc56)CC4)CC3)ccnc2c1,0
22,CC(C)(C)C(=O)Nc1c(-c2cc(=O)oc3cc4c(cc23)CCC4)oc2ccccc12,5.08

row,SMILES,IFI [%]
1,Nc1c(Cl)cc(C(O)CNCCCCCOCCc2ccccc2)cc1C(F)(F)F (centres undefined),3.01
2,N#Cc1cncc(-c2nc3c(N4CCCC(N)C4)cccc3n2CCNCc2ccccc2)c1 (centres undefined),0
3,O=C(Nc1ccc(Cn2ncc(N3CCCNCC3)c(Cl)c2=O)cc1)Nc1cc(C(F)(F)F)cc(C(F)(F)F)c1,5.88
4,CC(C)S(=O)(=O)N1CCN(Cc2ccc3c(c2)nc(NC(=O)c2ccsc2)n3C[C@H](O)c2ccccc2)CC1,5.63
5,Cc1cnc(-c2ccc(NC(=O)c3coc4ccc(N5CC(C)N(C)C(C)C5)cc34)cc2)o1 (centres undefined),3.52
6,Oc1ccc(Cc2cc(Oc3c(I)cc(CCc4ncc[nH]4)cc3I)ccc2O)cc1,8.97
7,CC(=O)Nc1ccc(CN(Cc2ccc(F)cc2)Cc2ccc3c(c2)OCO3)cc1,2.82
8,c1ccc2c(NCCCCCCCNc3ccnc4ccccc34)ccnc2c1,11.3
9,COc1ccc2nccc(NC(=O)C3CCC(NCc4ccc5c(c4)NC(=O)CS5)CC3)c2c1 (centres undefined),1.5
10,CCCCCCc1ncc(-c2cc3cc(O)c(-c4ccccc4)cc3oc2=O)s1,-0
11,Cc1ccoc1C(=O)Nc1cccc(-c2cccc(-c3nc4cc(C(F)(F)F)ccc4[nH]3)c2)c1,6.48
12,O=C(O)CCc1ccc(-c2c[nH]c3ncc(-c4ccc5ncccc5c4)cc23)cc1,5.88
13,O=C(NCc1ccc(C(=O)NC2CCCCC2)cc1)c1ccc(O)c(-c2ccc(Cl)c(Cl)c2)c1,3.68
14,CCN(CC)CCN(Cc1ccc(-c2ccc(C(F)(F)F)cc2)cc1)C(=O)Cn1c(CCc2cccc(F)c2F)nc(=O)c2cc(F)ccc21,6.82
15,COc1cc(NC(=O)/C=C/c2ccccc2Cl)cc(OCCN2CCC(O)(c3ccccc3)CC2)c1,6.52
16,Cc1cc(C)n(-c2nc(Nc3cccc(C(F)(F)F)c3)nc(-n3nc(C)cc3C)n2)n1,0.74
17,COc1ccc(NC(=O)[C@H](CC(C)C)Nc2ccnc(NCCc3ccc(F)cc3)n2)cc1,6.82
18,CC(CN(C)C)C(=O)Nc1cccc(-c2ccc(-c3nc4cc(F)ccc4[nH]3)s2)c1 (centres undefined),3.64
19,N=C(N)Nc1nc(-c2cc(NC(=O)C(F)(F)F)cc([N+](=O)[O-])c2)cs1,2.24
20,C/C=C/C=C/C1=NCCc2cc(OCCC)ccc21,8.76
21,O=C1SC(=Cc2ccc(O)c(O)c2)C(=O)N1c1ccccc1,9.86
22,CC1CN(c2cc(=O)n(Cc3cccc(NC(=O)Nc4ccc(-c5ccccc5)cc4)c3)cn2)CC(C)N1 (centres undefined),7.53
